B1: CPEB3 Ribozyme (parent)
chain: UAACAGGGGGCCACAGCAGAAGCGUUCACGUCGCAGCCCCUGUCAGAUUCUGGUGAAUCUGCGAAUUCUGCUGUAUAUCUC

Read counts are not given, so values of variants with three or more changes are uncertain.

The variants in this data set derive from B1. Description: self-cleavage, relative activity (ratio to wild type); higher = more cleavage; in vitro, sequencing. In outline: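 After error-prone PCR and barcoding, CPEB3 ribozyme mutant libraries were transcribed with T7 RNA polymerase at 37°C for 5 hours, then given 15 min with DNase I before an EDTA stop, and they cleaved during both steps. Reverse transcription with template switching preceded Illumina sequencing. Relative activity divides a variant's cleaved/total read fraction by the unmutated ribozyme's. At least 5 reads were required per variant, and three batches were averaged.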
On to C23A U43C U54C, for which the self-cleavage was 0.09.

Regarding A21G U41A U43A U69A, the self-cleavage was 0.24. With C23U U25C C34U A45G, the self-cleavage was found to be 0.16. Turning to A21G U41A A45U U49C G61A, the self-cleavage was 0.16.

Consider C23U A45G C50U A56G, for which the self-cleavage came to 0.18. As for G24A U31C A47G, the self-cleavage is 0.17. In the case of A21G U72C C79U, the self-cleavage is 1.09. In the case of A21U A47G U78C, the self-cleavage was determined as 0.33.

For A21U U51A G52A, the self-cleavage came to 0.44. Regarding A21G U54C U58C U60C A77C, the self-cleavage was 0.11. With C23U U43C U48C U72C U74C, the self-cleavage was determined as 0.06. A21U A35G C40U U67C G70C: the self-cleavage amounted to 0.07.

As to A21G U72A A77G, the self-cleavage came out at 0.21.

Consider G22U C29G A57U U69C U72C, for which the self-cleavage stood at 0.07. As to C23G U31A U72G U80C, the self-cleavage was found to be 0.04. With U25A A64U U72G U78C, the self-cleavage amounted to 0.14.

For the variant G24A U26A A35G U41C U69C, the self-cleavage was determined as 0.06. With G24A U69C U78C, the self-cleavage was 0.13. In the case of A21G U58G U66C it was 0.3; in that of G24A C38G U48C U58A, 0.15; in that of A21G U43A U49C, 0.25. Regarding C23U U60A A65G, the self-cleavage is 0.12. The value for A21U A45U A57G G70C was 0.19; that for G22U U26C A35U U51C U60A U80C was 0.12. In the case of A21G U49C U58C, the self-cleavage is 0.32. The value for C23U A45G G73C was 0.35; that for A21G U54A U66C U74A was 1.26.

With C23A C32A A35U U54C, the self-cleavage came out at 0.16. For U25A A28C U43C U72A U80C, the self-cleavage was 0.06.

For the variant C23A U31A A35C G52A U54C C68U, the self-cleavage was found to be 0.05.

Consider A21G U51C G53C A56G, for which the self-cleavage turned out to be 0.64. As for U25A A28G A56G U60A, the self-cleavage was determined as 0.2.

As for A21G U54C U67C U80G, the self-cleavage amounted to 0.17.

Take C23U G30A A35C A57G: the self-cleavage was determined as 0.09. In the case of G24A C40A U48C A57G U60A, the self-cleavage was 0.12.

For the variant A21U A28G U43A U51C A65G, the self-cleavage came out at 0.12.

A21G U43A U51C: the self-cleavage came out at 0.81. In the case of A21G U67C U69C it was 0.15; in that of U25A A45U A77G U80C, 0.07. With C23U U26G A28G, the self-cleavage was found to be 0.08. With A21G U43C U60C, the self-cleavage was determined as 0.15. For the variant A21G U31C U76G U78C, the self-cleavage stood at 0.12. On to U25A A35G A47G U67A U74A A75U, for which the self-cleavage worked out at 0.05. For the variant A21G U51A U80A, the self-cleavage is 0.82. Regarding C23A A28G U54C, the self-cleavage amounted to 0.19. For G24C U25G G36C U51C, the self-cleavage turned out to be 0.07. For G24A U31G C40A A57G A64U, the self-cleavage was 0.06. On to G24A G30C A47G C50A A56U U76C, for which the self-cleavage turned out to be 0.04. With C23U U26C U31C A35G C40A A47G, the self-cleavage is 0.09.

Regarding A21G U31C U41C A57G U66C, the self-cleavage was determined as 0.54. Turning to A21G U51A U78C, the self-cleavage was found to be 0.49. In the case of C23G A28G U41A A56G U72G it was 0.05; in that of G24A A35G A65U A75G U76C, 0.08; in that of A21U U26C U41G U43C G70A U80C, 0.5.

Turning to A21U G33A U41A, the self-cleavage was determined as 0.1. In the case of A21G U66C U69A, the self-cleavage turned out to be 0.39. On to A21G U41C A64C, for which the self-cleavage came out at 0.13. The value for A21G U41C A64G was 0.51; that for C23U A56G U74A was 0.52. Regarding C23U U67C A77U, the self-cleavage came out at 0.13. For G24A A28G U41A, the self-cleavage was 0.13.

A21U U26A U51C A57G U69C U78C: the self-cleavage stood at 0.08.

On to G24A A47G A75U, for which the self-cleavage turned out to be 0.08. Turning to G24A U43A U49C, the self-cleavage amounted to 0.16. In the case of A21G U54G A57G it was 0.14; in that of A21G U54G A57U, 0.2.

Take A21G U41G G53A: the self-cleavage was found to be 0.07.

A21G U41A U66C: the self-cleavage amounted to 0.32.

As for A21G U49C U60C A77C, the self-cleavage worked out at 0.06. For C23A C37U C44U A77G, the self-cleavage was found to be 0.1. In the case of A21G U43G U49G it was 0.07; in that of G24A U25C U51A, 0.22. In the case of G22C U31C U58C A64G U80A it was 0.06; in that of A21U A35G U67C, 0.18. For the variant A21U U58C U67C U72C, the self-cleavage stood at 0.29. In the case of C23U A35G U72A U78C, the self-cleavage worked out at 0.68.

In the case of G24A A56U U76A, the self-cleavage turned out to be 0.08. In the case of A21U U74A U78C, the self-cleavage stood at 0.58.

Regarding A21G U31C U41A A47U A56U A75U, the self-cleavage came to 0.15. On to A21G U49A G52A U54A A56G G61C, for which the self-cleavage came out at 0.19. In the case of A21U C38U U41C U60A it was 0.09; in that of A21U U25C U48A U49A U69C U78C U80A, 0.11; in that of G24A U26A A64C U72C U74A, 0.05.

The values above are taken from the RNAGym collection of RNA variant scans (doi:10.1093/nar/gkz1192).
